Experimental findings from PubChem BioAssay AID463173 (ICCB-Longwood Screening Facility, Harvard Medical School, 2010) are described below.

The campaign covered roughly 52,000 compounds. About 1,700 (3.3%) were called active. Cut-off read from the data, not from the text of the source: active = survival mostly below about 52% (no sharp cut-off); inactive = mostly above about 56%. Some of the results follow.

The subject of the assay is Wild type. The experiment in a line: S. aureus survival, RN4220 and DeltatarO strains – OD600, teichoic acid synthesis inhibitors, primary screen (AID 463173). The following applies: S. aureus RN4220 wild type/DeltatarO growth, OD600, 18 h, active compounds read low, screened at 18.75 µg/mL (by protocol).
For `Cc1c(-c2nc(-c3ccccc3)no2)nnn1-c1ccc(F)c(Cl)c1`, the survival was inactive: 73%.

Take `CCc1ccc(NC(=O)Cn2c(=O)n(-c3ccc(Cl)c(Cl)c3)c(=O)c3c(C)c(C)sc32)cc1`: the survival was inactive: 92%.

With `COc1ccc(Cl)c2sc(NC(=O)c3ccc(S(=O)(=O)N4CCOCC4)cc3)nc12`, the survival was inactive: 73%.

Regarding `COCCNC(=O)c1cnc2sc(N3CCCCC3)nn2c1=O`, the survival is inactive: 71%.

For the compound `CSc1cccc(NC(=O)C2CCN(c3nc4ccccc4[nH]3)CC2)c1`, the survival is inactive: 78%.

Regarding `Cc1ccc(Cn2c(SCc3ccc(C(=O)NC4CCCCC4)cc3)nc3ccncc32)cc1`, the survival was inactive: 75%.

On to `CN(C(=O)CCc1nc(-c2ccccc2F)no1)c1ccc(Cl)cc1`, for which the survival is inactive: 68%.

In the case of `CCOc1ccc(NC(=O)CCC(=O)Nc2cc(OC)c(NC(=O)c3ccco3)cc2OC)cc1`, the survival was inactive: 107%.

For the compound `O=S(=O)(c1ccc(OC(F)(F)F)cc1)N1CCC(c2nnnn2-c2ccc(F)cc2)CC1`, the survival is inactive: 88%.

For the compound `Cc1ccc(NC(=O)c2nc(S(C)(=O)=O)ncc2N(Cc2ccc(C(C)(C)C)cc2)Cc2ccco2)cc1C`, the survival is inactive: 88%.

On to `CCc1cccc(NC(=O)C2CCCN(c3ncnc4onc(-c5ccc(F)cc5)c34)C2)c1` (configuration not stated), for which the survival was inactive: 74%.

Consider `COc1cc(C(=O)NCC(c2ccc3c(c2)OCO3)N2CCOCC2)cc(OC)c1OC` (configuration not stated), for which the survival is inactive: 65%.

As for `CCCC(O)c1nc2ccccc2n1CCCOc1ccc(Cl)cc1` (configuration not stated), the survival was inactive: 97%.

Consider `CCOc1ccc(-c2cc3c(=O)n(CC(=O)NCc4ccc(C)cc4)ccn3n2)cc1`, for which the survival is inactive: 78%.

As to `O=C(N/C(=C\c1ccc(O)cc1)C(=O)N1CCCCC1)c1ccccc1`, the survival was inactive: 96%.

For `CCc1nn(C)c(N)c1C`, the survival is inactive: 99%.

Take `CCn1cc(C(=O)OCC(=O)Nc2ccc(C)c(Cl)c2)c(=O)c2ccc(C)nc21`: the survival was inactive: 70%.

In the case of `CCN1CCSc2ccc(C(=O)NCc3ccc(OC(C)C)cc3)cc21`, the survival was inactive: 85%.

For `COc1ccc(-c2noc(CSCC(=O)Nc3cc(OC)c(OC)c(OC)c3)n2)cc1OC`, the survival was inactive: 72%.

As to `CCOC(=O)Cc1ccc(NC(=O)NCc2c(-n3cccc3)sc3c2CCCC3)cc1`, the survival was inactive: 85%.

For the compound `COc1ccc(N(Cc2cc3ccccc3[nH]c2=O)C(=O)c2cccc(Cl)c2)cc1`, the survival was inactive: 86%.

`Cc1ccc(NC(=O)c2c(C)cc(C)nc2SCC(=O)Nc2ccc(Br)cc2)cc1`: the survival is inactive: 76%.

`Cc1ccc(C(=O)N/C(=C/c2ccccc2)C(=O)NCc2ccco2)cc1`: the survival was inactive: 106%.

For `CN1CCCC(OC(=O)c2ccc(F)cc2)C1` (configuration not stated), the survival was inactive: 99%.

Turning to `CC(=O)N1c2ccccc2CC1C(=O)N1CCN(c2ccccc2)CC1` (configuration not stated), the survival is inactive: 75%.

Turning to `CCc1nc2ccc(C(=O)NCCc3ccccc3OC)cc2nc1CC`, the survival is inactive: 72%.

`O=C(CS(=O)(=O)c1cccc2nsnc12)Nc1ccccc1Cl`: the survival is inactive: 74%.

Turning to `OCCn1nnnc1-c1ccccc1`, the survival is inactive: 108%.

Consider `CCCCN1CC(c2nc3ccccc3n2CCCCOc2cc(C)ccc2C)CC1=O` (configuration not stated), for which the survival is active: -6%.

Regarding `Cc1cccc(OCC(=O)Nc2cccc(OCc3cc(=O)n4cccc(C)c4n3)c2)c1`, the survival is inactive: 120%.

Consider `O=C(/C=C/c1ccccc1)Nc1cc(-c2nc3cc(Cl)ccc3o2)ccc1Cl`, for which the survival was inactive: 70%.

As for `Cc1cc2nc(-c3cccc(NC(=O)c4cccc5ccccc45)c3)oc2cc1C`, the survival is inactive: 82%.

`CCOc1ccc(N2CC(NC(=O)c3ccco3)CC2=O)cc1` (configuration not stated): the survival is inactive: 75%.

As to `CN1CCC(N(Cc2ccc3c(c2)OCO3)C(=O)c2cn(Cc3ccccc3)c3ccsc23)CC1`, the survival was inactive: 104%.

For `CC1CCCN(C(=O)c2cc3ccc4cccnc4c3[nH]2)C1` (configuration not stated), the survival is inactive: 83%.

For the compound `COc1cccc(-n2ccnc2SCC(=O)Nc2c(C)cc(C)cc2C)c1`, the survival is inactive: 113%.

As to `Cc1cc(C)c(NC(=O)Cn2c(=O)c3cccn3c3ccccc32)c(C)c1`, the survival was inactive: 76%.

`CCCCNC(=O)c1ccc2c(c1)N(Cc1ccc(F)cc1)C(=O)c1ccccc1S2=O` (configuration not stated): the survival was inactive: 93%.

For `CCSc1ncc(Cl)c(C(=O)N2CCN(c3ccccc3OC)CC2)n1`, the survival was inactive: 89%.

In the case of `CCOCCCNC(=O)c1ccc(-n2c(-c3ccccc3)cc3c2CCCC3)cc1`, the survival was inactive: 86%.

Consider `Cc1ccc(NC(=O)/C=C\C(=O)N(c2ccc(C(C)C)cc2)C(C(=O)NCc2ccco2)c2ccc(Cl)cc2)cc1` (configuration not stated), for which the survival is inactive: 67%.

As to `Cc1cccc(C(=O)OCc2cc(=O)n3ccsc3n2)c1`, the survival is inactive: 71%.

Take `COc1ccc(CNC(=O)C2CCN(S(=O)(=O)c3c(C)noc3/C=C/c3ccccc3F)CC2)cc1`: the survival is inactive: 94%.

On to `CC(C)(C)c1cc(C(F)(F)F)nc(SCCNC(=O)c2cnn3cccnc23)n1`, for which the survival was inactive: 107%.

Take `COc1ccc(Cn2ccc3nc(C)c(C(=O)Nc4ccc(OC)cc4)cc3c2=O)cc1`: the survival is inactive: 85%.

For `Cc1ccc(-n2c(C)cc(C(=O)C(=O)Nc3ccccc3)c2C)c(C)c1`, the survival was inactive: 85%.

Turning to `COc1ccc(CCNC(=O)CCn2c(=O)c3ccccc3n(Cc3ccccc3F)c2=O)cc1OC`, the survival is inactive: 95%.

Take `CC(=O)Nc1nc2n(n1)C(c1ccc(F)cc1)C=C(c1ccc(Cl)cc1)N2` (configuration not stated): the survival was inactive: 90%.

Take `CC(C(=O)NCCSCc1cccc(Cl)c1)N(c1ccccc1)S(C)(=O)=O` (configuration not stated): the survival was inactive: 90%.

In the case of `CC(=O)c1cccc(NC(=O)C2CCN(S(=O)(=O)c3ccc4c(c3)CCCN4C(C)=O)CC2)c1`, the survival is inactive: 75%.

Turning to `Cc1ccc(-c2nc(C)c(CCNC(=O)c3cccs3)s2)cc1`, the survival was inactive: 119%.

Regarding `Cc1c(C(=O)OCc2ccccc2)[nH]c2c1C(=O)CC(c1ccc(C(C)(C)C)cc1)C2` (configuration not stated), the survival was inactive: 93%.

Regarding `CC1CCN(c2nn3c(=O)c(C(=O)NCCCOC(C)C)cnc3s2)CC1`, the survival was inactive: 146%.

Turning to `Cc1ccc(CN2CCCn3nc(C(=O)NCCc4ccccc4C)cc3C2=O)cc1`, the survival is inactive: 79%.

Consider `CC(C)c1ccc(NC(=O)C2CCN(C(=O)c3ccc(F)cc3)CC2)cc1`, for which the survival is inactive: 65%.

For the compound `COc1cc(C(=O)Nc2ccccc2-c2nc(-c3ccccc3)no2)cc(OC)c1OC`, the survival was inactive: 88%.

`CCc1cccc(NC(=O)c2cc3c(=O)n(Cc4ccccc4)ccc3nc2C)c1`: the survival was inactive: 74%.
